# From the supplement of paper PMC3334620
# Whole data set: some 33,000 sequences, median “E-score (-0.5 to 0.5)” near -0.016, cut for the highest 2% near 0.32. Some of the results follow.
# Target: T1, Stp1 (UniProt B3LFK1)
# T1 sequence: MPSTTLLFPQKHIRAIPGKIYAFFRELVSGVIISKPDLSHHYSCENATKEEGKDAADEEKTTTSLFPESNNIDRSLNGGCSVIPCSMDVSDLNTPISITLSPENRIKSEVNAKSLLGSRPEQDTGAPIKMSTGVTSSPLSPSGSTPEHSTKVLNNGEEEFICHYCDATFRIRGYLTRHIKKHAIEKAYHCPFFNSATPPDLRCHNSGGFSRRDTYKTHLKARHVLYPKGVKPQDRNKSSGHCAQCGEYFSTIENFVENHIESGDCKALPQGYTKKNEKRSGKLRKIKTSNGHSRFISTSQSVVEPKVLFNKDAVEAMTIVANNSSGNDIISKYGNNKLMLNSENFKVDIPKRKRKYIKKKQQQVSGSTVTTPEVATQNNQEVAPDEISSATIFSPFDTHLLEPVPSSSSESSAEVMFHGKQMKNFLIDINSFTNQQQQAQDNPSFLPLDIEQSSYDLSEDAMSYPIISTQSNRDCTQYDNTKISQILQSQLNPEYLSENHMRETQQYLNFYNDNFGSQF
# Test: PBM E-score (8-mer binding enrichment) (E-score (-0.5 to 0.5)); higher = stronger / more preferred TF binding; most listed sequences are background and not binding sites
# Settings: protein concentration: 200 nM; construct: GST-full length
# Procedure, shortened: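 For each ungapped eight-base word taken together with its reverse complement, the Universal PBM Analysis Suite assigned an E-score. Binding data came from GST-tagged yeast transcription factors, applied at about 100-200 nM, on universal all-10-mer Agilent arrays made double-stranded by primer extension. Fluorescent anti-GST marked bound protein, and scans were normalised with masliner.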
row,Sequence,PBM E-score
1,CCAGGTCA,-0.325
2,CAGCGTCA,-0.206
3,GGGTTAAC,-0.0436
4,GGATTCCC,-0.215
5,CATTGAGA,0.0216
6,AGTTCCTG,-0.187
7,CATTGCGA,0.0588
8,CGTTCAAA,0.111
9,CCTCTTAC,0.0857
10,TGGCTCAA,0.00085
11,AATCTGAT,0.0789
12,CTCATGCC,0.193
13,ACGACGGG,-0.0299
14,CTTTTGTA,0.0954
15,AGCGAGAC,-0.147
16,CCTAGTAC,-0.0241
17,CTGCACCA,-0.199
18,CCAGGCAA,-0.0743
19,CCTGGACA,-0.187
20,GTGGTGAA,-0.0667
21,TGCAACCA,-0.11
22,CACGGGCA,0.231
23,CTTCTGGC,-0.0139
24,AACTTTGT,0.112
25,GGTTATCA,-0.21

row,Sequence,PBM E-score
1,ATTCCCCA,-0.27
2,CAGTAACC,0.0449
3,CATTCACG,0.0454
4,GGTGTGGA,-0.00275
5,GGACCTAA,-0.0501
6,GGGGGACA,-0.445
7,CGTGGAAG,0.0292
8,CGCCTTAA,0.211
9,CCCTTAAC,-0.155
10,AGACCCTC,-0.313
11,ATCACTTC,0.0639
12,CGCCATGC,0.226
13,GGGTAACA,-0.132
14,CACGCGTC,0.0631
15,ATATAATA,0.205
16,CACGGGGC,0.241
17,CGCCGTGA,0.376
18,AGAGGTCA,-0.276
19,CAATCGTA,0.121
20,CACAGCGC,0.148
21,GTCCTAAC,-0.0457
22,CGCCGCCG,0.402
23,ATCCAAAG,0.168
24,ACTAGGGC,-0.00553
25,AAGGGGGG,-0.365

row,Sequence,PBM E-score
1,TACTGGAA,-0.0529
2,ATTAACCG,0.111
3,CAGTACTG,-0.0293
4,ATGGATGC,-0.102
5,GACTCTAC,-0.266
6,AAAATACG,0.0892
7,CAATTTCA,0.0644
8,GGAGGGCA,0.0187
9,CGGTCTAG,-0.113
10,ACTCGTCA,-0.0629
11,CTTAGGGA,-0.232
12,AGTGTCAG,-0.135
13,ACTCCATC,-0.113
14,AAGTTAGG,0.0337
15,ACAACAAG,0.0597
16,CAGCACAC,-0.198
17,GCTGCGGA,0.106
18,GGACCCTA,-0.26
19,GTGTATCA,0.146
20,CCCCAACG,-0.158
21,CGAGTAAC,0.0688
22,ACGTGCAT,0.0861
23,CTAGCACA,-0.163
24,ACTTCCCC,-0.309
25,TTCGACAA,0.124

row,Sequence,PBM E-score
1,GCTGCCAA,0.0212
2,CACCCACG,0.131
3,ATATGGCA,0.273
4,ACAGACTC,-0.118
5,GATGTTGC,0.223
6,AATCCTCG,-0.184
7,AGTGTCTC,-0.194
8,CCGTTTAA,0.349
9,CGCTGTCA,-0.253
10,ACCAGTTA,0.00467
11,GTTCTTCA,0.174
12,GTGTGTGA,0.126
13,GAATGGTA,0.0879
14,ATGGCAAC,0.289
15,AAATCGTA,0.125
16,CACACAGG,-0.0675
17,CTTTTTAC,0.182
18,CGGAATAA,-0.0973
19,ATGGTAAA,0.0118
20,AAGATCGT,-0.134
21,AGTTCTTG,0.133
22,CACTGCAC,0.0109
23,CCCGGATC,-0.139
24,AGCCATAC,-0.0165
25,TGCACAAA,0.0921

row,Sequence,PBM E-score
1,CTCTTTTA,-0.183
2,AGGTTCCG,-0.0225
3,AAAGATCC,0.0284
4,CAGGGTCG,-0.13
5,GGTGACAA,0.0331
6,TTCCTAAA,0.0739
7,GCATCACC,0.0109
8,CCCGGCAA,0.0207
9,GCCCTGCC,0.277
10,AGGTGAGG,-0.0113
11,CTGAACGC,-0.103
12,CAATACGC,0.175
13,CCGGCCGG,0.0502
14,AGAAGTCC,-0.126
15,AGGTATTA,0.118
16,ACTACTAG,0.161
17,TCGGCGAA,-0.0263
18,AGCGCGCT,-0.172
19,GCTTGCCA,-0.0643
20,CTGAAGTC,-0.0901
21,ACTCTAAA,0.118
22,AAGAGGTG,0.0582
23,CTACCGCA,0.0499
24,CATAATCG,0.0926
25,ATTAAGTC,0.0493

row,Sequence,PBM E-score
1,TCAAATGA,-0.083
2,AATGAAGT,0.0747
3,ATATCGGG,-0.00836
4,GGACTCTA,-0.344
5,ACGGCGAG,0.437
6,AACGGGAA,0.0169
7,GCATACAA,0.14
8,GCATCCCC,-0.143
9,ACGTGTAG,-0.122
10,ACCACGTG,-0.0625
11,ACCAGCGC,-0.0679
12,GCTTGATA,0.145
13,TCCTAAGA,0.00923
14,GTTGTAAA,-0.118
15,ATATGATG,-0.103
16,AGGGCAGC,-0.214
17,AAACATGG,0.0475
18,ATGCACAA,-0.0204
19,CGTCGGTA,-0.0891
20,AGTCACCC,-0.104
21,GAATAAAA,0.155
22,TCGCCCAA,0.055
23,ATGAATAC,0.16
24,CAACCGGG,-0.101
25,TGATTCAA,0.141

row,Sequence,PBM E-score
1,CACATGGA,-0.0235
2,TGTGATAA,0.103
3,AAGTGCAA,0.0993
4,CACGCCGG,-0.0191
5,TGAAAAAA,0.196
6,ATTATTAA,0.0896
7,GCCATCGC,0.0959
8,ATGAGGAC,-0.235
9,AGATAATG,0.194
10,CGTTTGCC,0.101
11,CTCATAGA,0.0227
12,ACAAAGTG,-0.0329
13,TATACTGA,0.266
14,ACAATCGA,0.0853
15,ACGCGCGG,0.316
16,CGTATTAG,0.223
17,TCTAGAGA,-0.167
18,CCCTGAGG,-0.0789
19,CCATAATA,0.0721
20,CAGTGATC,0.0271
21,ATTCATCC,-0.105
22,AAAAGGTT,-0.0226
